Experimental data as given in PubChem BioAssay AID652104 (National Center for Advancing Translational Sciences (NCATS), 2013).
Out of some 410,000 compounds screened, about 7,200 (1.8%) were called active. Inconclusive means that the source gave no clear call. Such entries were picked first, then a sample of the others. The call rests on the fitted dose curve; in most records, active means well fitted activation curve with a large enough effect; inconclusive means small, poorly fitted or top-dose-only effect, or another doubt; inactive means no such curve, though single readings can be large or run the other way. No potency is given beside an inconclusive call; the fits are too rough.

test: qHTS of TDP-43 Inhibitors; settings: TDP-43 expressing yeast growth rescue, BacTiter-Glo, 24 h; growth rescue (activation): at 46.1 µM (top of the series) unless noted; further: nearly all actives have a fitted effect of over 50% in size; on growth rescue (activation): % of control where 0% means no effect
In short: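 Readout is BacTiter-Glo luminescence of cell growth, so inhibitors register as activators. TDP-43-expressing yeast at OD600=0.02 in galactose medium, after raffinose pregrowth to mid-log, were incubated with compound for 24 hr at 30 deg C.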
Potency means the concentration at half of the fitted maximal effect; tags describe the fitted curve by direction and shape.

| SMILES | Potency | growth rescue (activation) |
| --- | --- | --- |
| COc1ccc(C2=CC(=O)CC(C)(C)C2)cc1 | inconclusive [activator, partial curve] |  |
| CCN(CC)c1ccc(NC(=O)C2CCN(S(=O)(=O)c3c(C)noc3/C=C/c3ccccc3F)CC2)c(C)c1 | inactive |  |
| CCC1C(=O)C(C)(C)C(=O)OC1c1ccc([N+](=O)[O-])cc1 (stereo not drawn) | inactive |  |
| COc1ccc(N2CCN(C(=O)c3[nH]c4ccc(OC)cc4c3C)CC2)cc1 |  | inconclusive: 49.9% [activator] |
| COc1ccc(OC)c(NS(=O)(=O)c2cccs2)c1 | inconclusive [activator, single point] |  |
| O=C(C1CCCN(c2ncnc3c2nc2n3CCCCC2)C1)N1CCN(c2ccc(F)cc2)CC1 (stereo not drawn) | inconclusive [activator, single point] |  |
| O=C1c2ccccc2C(=O)N1CCCCSc1nnc2c(Cl)cc(Cl)cn12 | inconclusive [activator, partial curve] |  |
| COc1ccc2ncc3c(-c4ccc(C)c(C)c4)nn(CC(=O)Nc4ccccc4)c3c2c1 | inconclusive [activator, partial curve] |  |
| N#Cc1cccn1-c1nccc(-c2cccs2)n1 | inconclusive [activator, single point] |  |
| O=C(CSc1nc2c(cnn2-c2ccccc2)c(=O)[nH]1)NC1CCS(=O)(=O)C1 (stereo not drawn) | inactive |  |
| Cc1cccc(N2CCN(C(=O)CCCn3c(=S)[nH]c4cc5c(cc4c3=O)OCO5)CC2)c1C | inconclusive [activator, single point] |  |
| C[C@@H](NC(=O)[C@H]1O[C@@H](n2cnc3c(N)ncnc32)[C@H](O)[C@@H]1O)c1cccc2ccccc12 | inactive |  |
| O=C(Nc1ccc2c(c1)OCCO2)C(c1ccnc2ccccc12)N1CCN(c2ccc(C(F)(F)F)cn2)CC1 (stereo not drawn) | inconclusive [activator, partial curve, poor fit] |  |
| CCOC(=O)Cc1csc(NC(=O)COc2ccc(C)cc2)n1 | active: 11.2 µM |  |
| O=c1[nH][nH]cc1C=NCc1cccnc1 | inactive |  |
| Cc1ccc(CC(=O)NCc2nc(-c3ccccc3)no2)cc1 | active: 12.6 µM |  |
| COc1ccc(C(O)c2nc(-c3ccc(Cl)cc3)cs2)cc1 (stereo not drawn) |  | inconclusive: 13% [activator] |
| O=C(COC(=O)CCSc1ccccc1)NCc1ccccc1 | inconclusive [activator, single point] |  |
| O=C(CCC(=O)OCCCC(F)(F)C(F)(F)F)Nc1ccc(Cl)cc1Cl | inconclusive [activator, partial curve] |  |
| O=C(NCCO)c1ccc(-c2nnc(Nc3ccc(OC(F)(F)Cl)cc3)c3ccccc23)cc1 | inactive |  |
| CC(=O)Nc1cc(-c2ccccc2N(C)C)cn2c(-c3ccccc3)cnc12 | inconclusive [activator, partial curve, poor fit] |  |
| COc1cccc(C(=O)Nc2nc(-c3nnn(-c4cccc(Cl)c4C)c3C)ns2)c1 | inactive |  |
| O=C(Cn1cc(S(=O)(=O)Cc2ccccc2F)c2ccccc21)Nc1ccc(F)c(Cl)c1 | inconclusive [activator, partial curve, poor fit] |  |

| SMILES | Potency | growth rescue (activation) |
| --- | --- | --- |
| CC(C)OC(=O)c1cc2ccccc2[nH]1 | inconclusive [activator, partial curve] |  |
| Brc1ccc2nc(-c3ccco3)c(Cc3ccccc3)n2c1 | inconclusive [activator, partial curve] |  |
| Oc1ccc(-c2cnc3ccccc3n2)cc1 | inconclusive [activator, partial curve] |  |
| CCc1cccc(NC(=O)CCn2nc(C)cc2C)c1 | inactive |  |
| COc1ccc(C2CC(=O)Nc3c2c(C)nn3-c2nc(C)cc(C)n2)c(OC)c1OC (stereo not drawn) | inconclusive [activator, single point] |  |
| Fc1ccc(Nc2cccc3nccnc23)cc1 | inconclusive [activator, partial curve] |  |
| O=C(Nc1cccc(NC(=O)c2ccco2)n1)c1ccco1 | inconclusive [activator, full curve, poor fit] |  |
| CNC(=O)c1c(NC(=O)C2=COCCO2)sc2c1CCC(C)C2 (stereo not drawn) | inconclusive [activator, partial curve, poor fit] |  |
| COc1ccc(Cl)cc1NC(=O)CN(C)C(=O)CSc1ccc2c(c1)OCCO2 | active: 20 µM |  |
| O=C(COc1ccccc1)Nc1nc(-c2cccs2)cs1 | inconclusive [activator, full curve, poor fit] |  |
| COc1ccc(C2=NN(C(=O)CSc3nnnn3C)C(c3ccco3)C2)cc1 (stereo not drawn) | inactive |  |
| Fc1cccc(NCCc2c[nH]c3ccccc23)n1 | inconclusive [activator, partial curve] |  |
| CN(Cc1ccccc1)C(=O)c1ccc(CSc2nc3cccnc3n2Cc2ccccc2)cc1 | inactive |  |
| CC(C(=O)O)c1ccc2c(c1)[nH]c1ccc(Cl)cc12 (stereo not drawn) | inconclusive [activator, partial curve] |  |
| O=C(NCc1ccccc1Cl)c1cnc2n(c1=O)CCS2 | inconclusive [activator, partial curve] |  |
| COc1ccc(CN2C[C@H](O)COC[C@@H]3O[C@H](CC(=O)NCc4ccncn4)CC[C@H]32)cc1 | inconclusive [activator, full curve, poor fit] |  |
| O=C(Nc1nc(-c2ccccn2)cs1)c1cc2ccccc2o1 | inconclusive [activator, single point] |  |
| S=C(c1ccc(-c2cccc(Cl)c2)o1)N1CCOCC1 | inconclusive [activator, single point] |  |
| O=C(Nc1ccc2oc(-c3ccc(Br)cc3)nc2c1)c1cc2ccccc2o1 | inconclusive [activator, single point] |  |
| CC(=O)OC(C)(C)C1Cc2cc3ccc(=O)oc3cc2O1 (stereo not drawn) | inactive |  |
| c1ccc(Oc2ccc(-c3ccnc4nc(N5CCOCC5)nn34)cc2)cc1 | inconclusive [activator, single point] |  |
| CC(=O)c1nn(-c2ccc(Br)cc2)cc1C(=O)c1ccco1 | inconclusive [activator, single point] |  |
| Cc1ccc(OCc2nnc(SC3CCc4ccccc4C3=O)n2C)cc1 (stereo not drawn) | inconclusive [activator, partial curve, poor fit] |  |

| SMILES | Potency | growth rescue (activation) |
| --- | --- | --- |
| COc1ccccc1CN1CCC(CNC(=O)c2cnn(-c3cccc(Cl)c3)c2C2CCN(C(=O)OC(C)(C)C)CC2)CC1 | inactive |  |
| Cc1c(NS(=O)(=O)c2ccc(C(C)(C)C)cc2)c(=O)n(-c2ccccc2)n1C |  | inconclusive: 31.2% [activator] |
| O=C(C1CC1)N(Cc1ccco1)c1nc(-c2ccccc2)cs1 | inconclusive [activator, partial curve] |  |
| c1ccc(-c2cc(-c3ccccc3)ncn2)cc1 | inconclusive [activator, single point] |  |
| Cc1ccc2occ(CC(=O)Nc3c(C)cccc3C)c2c1 | active: 12.6 µM |  |
| CCn1c(CSCc2ccc(Cl)cc2)n[nH]c1=S | inconclusive [activator, single point] |  |
| Cc1ccc(-n2ncc3c(NC4CCCCC4)ncnc32)cc1C | inconclusive [activator, full curve] |  |
| O=c1cc(-c2ccc(C(F)(F)F)cc2)oc2ccccc12 | inconclusive [activator, partial curve] |  |
| CC(=O)Oc1ccc2c(=O)oc(-c3ccccc3)nc2c1 |  | inactive: -16.5% [at 1.82 µM] |
| CCOC(=O)c1cc2c(=O)n3ccccc3nc2n(CCOC)c1=NC(=O)c1c(-c2c(F)cccc2Cl)noc1C | inconclusive [activator, single point] |  |
| CCn1c(Cc2ccc(OC)cc2)nnc1SCC(=O)N1CCN(c2ccccc2)CC1 | inconclusive [activator, full curve, poor fit] |  |
| CC(C)C[C@@]12C(=O)N(c3cccc(F)c3)C(=O)N1[C@H](c1ccc(Cl)cc1)[C@@H]1C(=O)N(C3CCCCC3)C(=O)[C@@H]12 | inconclusive [activator, partial curve] |  |
| Cc1c(C(=O)N2CCN(Cc3nccn3C)CC2)oc2c(F)cccc12 | inconclusive [activator, partial curve, poor fit] |  |
| COc1cccc(N/C=C/C(=O)c2ccc(OC)c(OC)c2)c1 | inactive |  |
| Cc1cc2c(cc1S(=O)(=O)NCc1ccc(F)cc1)OCC(=O)N2 |  | inactive: 2.6% [at 9.22 µM] |
| O=C(Cc1c[nH]c2ccccc12)OCCOC(=O)Cc1c[nH]c2ccccc12 | inconclusive [activator, single point] |  |
| O=C(CCCC(=O)c1ccc(F)cc1)c1ccc(F)cc1 | inconclusive [activator, partial curve] |  |
| CC1CCCC(NC(=O)c2ccc(COc3ccccc3)o2)C1C (stereo not drawn) | inconclusive [activator, single point] |  |
| Cc1cc(C)cc(NS(=O)(=O)c2ccc(-c3cc(C)no3)cc2)c1 | inconclusive [activator, single point] |  |
| Cc1noc(NS(=O)(=O)c2ccc(N3Cc4ccccc4C3=O)cc2)c1C | inactive |  |
| Cc1onc(NC(=O)NC(=O)c2ccccc2F)c1Br | inconclusive [activator, partial curve] |  |
| NC(=O)c1ccc(-n2nnnc2Oc2ccccc2)cc1 | inactive |  |
